{
  "source": "PubChem BioAssay AID463173",
  "about": "(ICCB-Longwood Screening Facility, Harvard Medical School, 2010)",
  "note": "The whole screen tested about 52,000 compounds, of which about 4,300 (8.3%) were called active. Cut-off read from the data, not from the text of the source: active = survival mostly below about 52% (no sharp cut-off); inactive = mostly above about 56%. The list shows a part of the results.",
  "data": [
    {"tested_on": "DeltatarO mutant", "assay": "growth inhibition of S. aureus wild type versus tarO mutant, primary screen, teichoic acid synthesis inhibitors, RN4220, OD600 (AID 463173)", "details": "OD600, 18 h, active compounds read low, screened at 18.75 µg/mL (by protocol)", "values": [
      {"smiles": "CCOc1ccccc1NC(=O)C(C)n1nnc2sc3c(c2c1=O)CCCC3", "note": "(stereo not given)", "survival": "inactive: 108%"},
      {"smiles": "COc1ccc(NC(=O)CSc2nc3ccccc3n2CC(=O)Nc2cccc(C)c2C)cc1", "survival": "inactive: 124%"},
      {"smiles": "Cc1ccc(CCNC(=O)c2ccc(Cn3c(=O)c4cccn4c4cccnc43)cc2)cc1", "survival": "inactive: 52%"},
      {"smiles": "Cc1ccc(-n2c(SCC(N)=O)nc3c(oc4ccccc43)c2=O)cc1", "survival": "inactive: 69%"},
      {"smiles": "CCn1c(CNC(=O)C23CC4CC(CC(C4)C2)C3)nnc1SCC(=O)Nc1ccc(OC)cc1", "survival": "inactive: 83%"},
      {"smiles": "O=C(COc1cccc(Cl)c1)N1CCC(c2nc3ccccc3s2)CC1", "survival": "active: 44%"},
      {"smiles": "CCC(C(=O)N1CC2(C)CC1CC(C)(C)C2)N1C(=O)c2ccccc2C1=O", "note": "(stereo not given)", "survival": "inactive: 91%"},
      {"smiles": "COC1=NS(=O)(=O)c2ccccc21", "survival": "inactive: 89%"},
      {"smiles": "O=S1(=O)CCC(N2CCCCC2)C1", "note": "(stereo not given)", "survival": "inactive: 95%"},
      {"smiles": "Cc1ccc(NC(=O)C2CCN(c3ncccn3)CC2)cc1F", "survival": "active: 53%"},
      {"smiles": "COc1cccc(C(=O)Nc2ccccc2SCc2cc(=O)c3cccc(C)c3[nH]2)c1", "survival": "inactive: 72%"},
      {"smiles": "Cc1cccc2cc(CN(C(=O)C(F)(F)F)C3CCCC3)c3nnnn3c12", "survival": "inactive: 100%"},
      {"smiles": "Cc1cc(C)cc(NC(=O)c2cc(S(=O)(=O)N3CCOCC3)cn2C)c1", "survival": "inactive: 67%"},
      {"smiles": "Cc1ccc(Cl)cc1N1CCN(C(=O)c2cnn(-c3ccc(Cl)cc3)c2C2CCNCC2)CC1", "survival": "inactive: 78%"},
      {"smiles": "N#Cc1c[nH]n2c(NC3CCCC3)c(-c3ccc(Br)cc3)nc12", "survival": "inactive: 88%"},
      {"smiles": "O=C(O)c1cccc(NC(=O)c2cccc(S(=O)(=O)Nc3cccc(F)c3)c2)c1", "survival": "inactive: 166%"},
      {"smiles": "O=S(=O)(Nc1ccc(-c2ccc(N3CCCC3)nn2)cc1)c1ccccc1Cl", "survival": "inactive: 66%"},
      {"smiles": "Cn1c(SCC(=O)N2c3ccccc3CCc3ccccc32)nnc1C1CC1", "survival": "inactive: 91%"},
      {"smiles": "CCOc1cccc(C2c3c(oc4ccc(F)cc4c3=O)C(=O)N2CCOC)c1", "note": "(stereo not given)", "survival": "inactive: 74%"},
      {"smiles": "CCCNC(=O)C1CCC(Cn2c(=O)c3sccc3n(CC(=O)N3CCCC(C)C3)c2=O)CC1", "note": "(stereo not given)", "survival": "inactive: 87%"},
      {"smiles": "CC(=O)C1=C(c2ccc(C)cc2)N(C(C)=O)n2c(nnc2-c2ccccc2)S1", "survival": "inactive: 126%"},
      {"smiles": "CCOc1ccc(C(=O)NC2CCN(CC(=O)NCc3ccccc3)CC2)cc1", "survival": "inactive: 107%"},
      {"smiles": "COc1ccc(S(=O)(=O)NCC(c2ccc(N(C)C)cc2)N2CCCC2)cc1F", "note": "(stereo not given)", "survival": "inactive: 98%"},
      {"smiles": "N#C/C(=C\\c1ccc2c(c1)OCO2)c1ccccc1", "survival": "inactive: 82%"},
      {"smiles": "Cc1cc(C)c(NC(=O)Cn2nnc(-c3nc(-c4ccncc4)no3)c2N)c(C)c1", "survival": "inactive: 94%"},
      {"smiles": "Cc1cccc(-c2nnn3c2nc(NCCC(C)C)c2ccccc23)c1", "survival": "inactive: 99%"},
      {"smiles": "CCOc1ccc(C2c3c(oc4ccccc4c3=O)C(=O)N2Cc2ccc3c(c2)OCO3)cc1", "note": "(stereo not given)", "survival": "active: 36%"},
      {"smiles": "Cc1ccc(Nc2c(-c3ccc(N4CCOCC4)cc3)nc3ccc(Cl)cn23)cc1", "survival": "inactive: 100%"},
      {"smiles": "Cc1cc2c(cc1S(=O)(=O)N1CCC(C(N)=O)CC1)OCC(=O)N2", "survival": "inactive: 91%"},
      {"smiles": "CC(=O)c1ccc(NC(=O)/C=C/c2ccc(C)o2)cc1", "survival": "inactive: 48%"},
      {"smiles": "CCn1c2ccccc2c2cc(/C=N/NC(=O)Cc3cccs3)ccc21", "survival": "inactive: 78%"},
      {"smiles": "COc1cn(CC(=O)Nc2ccc(C)cc2C)c(CN2CCCCC2)cc1=O", "survival": "inactive: 71%"},
      {"smiles": "COc1cccc(C(=O)Nc2ccc(-c3nc4ccc(C)cc4s3)cc2)c1OC", "survival": "inactive: 49%"},
      {"smiles": "O=C(CSc1nc2c([nH]c3ccccc32)c(=O)n1-c1cccc(C(F)(F)F)c1)N1CCCC1", "survival": "inactive: 71%"},
      {"smiles": "CCOC(=O)c1cccc(NC(=O)C2(S(=O)(=O)c3ccc(C)cc3)CC2)c1", "survival": "inactive: 81%"},
      {"smiles": "CCCS(=O)(=O)N1CC(=O)N(c2ccccc2C)C(C)(C(=O)NC2CCCCC2)C1", "note": "(stereo not given)", "survival": "inactive: 75%"},
      {"smiles": "Cc1ccc(S(=O)(=O)c2nnn3c2nc(NCc2ccc(F)cc2)c2sccc23)cc1C", "survival": "inactive: 47%"},
      {"smiles": "CC(C)OCCCn1c(=O)c2ccccc2n2c(-c3ccc(F)c(F)c3)nnc12", "survival": "inactive: 97%"},
      {"smiles": "CCC1CN(C(=O)N2CCC(C(=O)NCc3ccc(C)o3)CC2)c2ccccc2O1", "note": "(stereo not given)", "survival": "inactive: 87%"},
      {"smiles": "COc1ccc(Nc2cc(C(=O)NCc3ccccc3)c3ccccc3n2)cc1", "survival": "inactive: 97%"},
      {"smiles": "Cc1nn(-c2ccc(N3CCCC3)nn2)c(C)c1CCC(=O)NCc1ccc(F)cc1", "survival": "inactive: 74%"},
      {"smiles": "Cc1ccccc1Cn1cc(NC(=O)c2cc(-c3ccc(Cl)cc3)on2)cn1", "survival": "inactive: 72%"},
      {"smiles": "Cc1ccc(Cl)cc1N1CCN(S(=O)(=O)c2ccc3oc(=O)c4ncn(C)c4c3c2)CC1", "survival": "inactive: 107%"},
      {"smiles": "CCc1ccc(OCC(=O)Nc2ccc(Cl)c(-c3nc4cc(C)cc(C)c4o3)c2)cc1", "survival": "active: 35%"},
      {"smiles": "Cc1cccc(OCC(=O)NCC2(N3CCN(C)CC3)CCCCC2)c1", "survival": "inactive: 74%"},
      {"smiles": "S=C(Nc1ccccc1)Nc1ccccn1", "survival": "inactive: 89%"},
      {"smiles": "Cc1cccc(NC(=O)CN2C(=O)COc3ccc(S(=O)(=O)Nc4ccccc4)cc32)c1C", "survival": "inactive: 119%"},
      {"smiles": "Cc1[nH]c2ccc(C(=O)NCCc3ccccc3Cl)cc2c1C", "survival": "inactive: 68%"},
      {"smiles": "O=C(Cn1nc(-c2nccc3ccccc23)oc1=O)N1CCCc2ccccc21", "survival": "inactive: 102%"},
      {"smiles": "CCOC(=O)C1CCN(C(=O)c2ccc3c(c2)sc2nc(-c4ccc(C)cc4)cn23)CC1", "survival": "inactive: 98%"},
      {"smiles": "COc1ccc(-c2nc3cc(C(C)C)ccc3o2)cc1NC(=O)c1ccc(C)c(Cl)c1", "survival": "active: 21%"},
      {"smiles": "O=S(=O)(NCc1nc2cccnc2n1Cc1ccc(F)cc1)c1ccc(Cl)s1", "survival": "active: -5%"},
      {"smiles": "COc1ccc(NC(=O)c2cc(S(=O)(=O)NCCC3=CCCCC3)ccc2F)cc1", "survival": "inactive: 94%"},
      {"smiles": "COC(=O)c1cc2sc(C)cc2n1CC(=O)Nc1cccc(SC)c1", "survival": "inactive: 74%"},
      {"smiles": "FC(F)(F)c1ccc(-c2noc(-c3ccccc3Br)n2)cc1", "survival": "inactive: 83%"},
      {"smiles": "CCc1ccc(NC(=O)C2CCN(S(=O)(=O)c3c(C)noc3/C=C/c3ccco3)CC2)cc1", "survival": "inactive: 69%"},
      {"smiles": "Cn1ccc2c(OCC(=O)Nc3ccc([N+](=O)[O-])cc3)cccc2c1=O", "survival": "inactive: 126%"},
      {"smiles": "CSc1ccc(CNC(=O)CN2C(=O)C3CCCCN3c3ccc(C(=O)N4CCCC4)cc32)cc1", "note": "(stereo not given)", "survival": "inactive: 83%"},
      {"smiles": "COc1ccc(Cn2ccc3nc(C)c(C(=O)N4CCN(c5ccccc5F)CC4)cc3c2=O)cc1", "survival": "inactive: 63%"},
      {"smiles": "COc1ccc(CNc2ccc(-c3ccc(OC)cc3)nn2)cc1", "survival": "inactive: 80%"},
      {"smiles": "Cc1ccc(NC(=O)Cn2cc3c(n2)CCC(C)C3)cc1C", "note": "(stereo not given)", "survival": "inactive: 89%"},
      {"smiles": "O=C(Cc1n[nH]c(=O)c2ccccc12)NCc1ccccc1", "survival": "inactive: 89%"},
      {"smiles": "COC(=O)C1CCN(S(=O)(=O)c2ccc(OC)cc2)CC1", "survival": "inactive: 81%"},
      {"smiles": "Cc1ccc(CCNC(=O)c2ccc(CS(=O)(=O)Cc3cccc(C)c3)o2)cc1", "survival": "inactive: 89%"},
      {"smiles": "CCc1ccccc1N(C)C(=O)c1nn(C)c2c1CSc1ccccc1-2", "survival": "inactive: 75%"},
      {"smiles": "COC(=O)c1ccc(Oc2nc3c(c(=O)n(C)c(=O)n3C)n2C(C)C)cc1", "survival": "inactive: 85%"},
      {"smiles": "CCCCNC(=O)CSc1nc2cc3c(cc2c(=O)n1CCCCCC(=O)NCCc1ccc(OC)c(OC)c1)OCO3", "survival": "inactive: 89%"},
      {"smiles": "Cc1ccc2nc(N3CCC(C(=O)NCc4ccc(F)cc4)CC3)[nH]c2c1", "survival": "inactive: 96%"},
      {"smiles": "Cc1cc(C)c(S(=O)(=O)NCc2csc(-c3ccccc3)n2)c(C)c1", "survival": "active: 34%"},
      {"smiles": "Cc1ccc2nc(COc3cccc(NC(=O)c4cccc(Cl)c4)c3)cc(=O)n2c1", "survival": "inactive: 70%"},
      {"smiles": "CCn1ccc2cc(S(=O)(=O)N3CCCN(C(=O)NCC(=O)OC)CC3)ccc21", "survival": "inactive: 94%"},
      {"smiles": "Nc1ccc(Cc2nc3ccccc3[nH]2)cc1", "survival": "inactive: 86%"},
      {"smiles": "Cc1ccccc1C(=O)NC1(C(F)(F)F)N=C(c2ccccc2)N(Cc2ccccc2)C1=O", "note": "(stereo not given)", "survival": "inactive: 134%"},
      {"smiles": "Cn1c(NN)nc2ccccc2c1=O", "survival": "inactive: 56%"},
      {"smiles": "Cc1ccc(OCC(=O)Nc2ccc3nc(SCC(=O)N4CCOCC4)sc3c2)cc1C", "survival": "inactive: 75%"},
      {"smiles": "CCC(Sc1nc2cc3c(cc2c(=O)n1CCCC(=O)NCc1ccc(OC)cc1)OCO3)C(=O)NCCCOC", "note": "(stereo not given)", "survival": "inactive: 84%"},
      {"smiles": "CCOC(=O)C1CCCN(C(=O)CCS(=O)(=O)c2cc3c(cc2Cl)NC(=O)CO3)C1", "note": "(stereo not given)", "survival": "inactive: 96%"},
      {"smiles": "CCN(CC)C(=O)c1sc2c(c1C)c(=O)n(-c1ccc(C)c(C)c1)c(=O)n2Cc1cccc(Cl)c1", "survival": "inactive: 55%"},
      {"smiles": "Cc1ccc2cccc(NC(=O)c3ccc(C#N)cc3F)c2n1", "survival": "inactive: 165%"},
      {"smiles": "CC(=O)N1CCc2cc(CNS(=O)(=O)c3ccc(C(C)(C)C)cc3)ccc21", "survival": "inactive: 87%"},
      {"smiles": "Cc1ccccc1NC(=O)Cn1c(=O)n(CCC(=O)NCc2ccc3c(c2)OCO3)c(=O)c2sccc21", "survival": "inactive: 150%"},
      {"smiles": "CCCC(=O)C1=C(N2CCN(C3=C(C(=O)CCC)C(=O)CC(C)(C)C3)CC2)CC(C)(C)CC1=O", "survival": "inactive: 81%"},
      {"smiles": "OC1C2CN3CCN(C2)CC1(Cc1ccccc1)C3", "note": "(stereo not given)", "survival": "inactive: 89%"},
      {"smiles": "CCC12CN3CC(C)(CN(C1)C3c1c[nH]c3ccc(OC)cc13)C2=O", "note": "(stereo not given)", "survival": "inactive: 76%"},
      {"smiles": "O=C(O)c1snc2c(=O)[nH]cnc12", "survival": "inactive: 95%"},
      {"smiles": "O=C(CN1C(=O)CCc2cc(S(=O)(=O)N3CCOCC3)ccc21)NCc1ccccc1Cl", "survival": "inactive: 70%"},
      {"smiles": "Cc1oc(C(C)(C)C)cc1C(=O)NCCO", "survival": "inactive: 77%"},
      {"smiles": "Cc1nn(-c2ccc(F)cc2)c(-n2cccc2)c1C(=O)N1CCN(c2ccccc2F)CC1", "survival": "inactive: 76%"},
      {"smiles": "COc1ccccc1CNC(=O)CN(c1ccc(C)cc1)S(=O)(=O)c1c(C)noc1C", "survival": "inactive: 85%"},
      {"smiles": "O=C(Nc1c(-c2ccc(F)cc2)nc2ccccn12)c1cccc(F)c1", "survival": "inactive: 146%"}
    ]}
  ]
}
